Out of some 48,000 compounds screened, about 120 (0.25%) were called active. Not shown: some 4% with an inconclusive outcome. Calls come from the whole dose curve; as a rule, active = well fitted activation curve with a large enough effect; inconclusive = small, poorly fitted or top-dose-only effect, or another doubt; inactive = no such curve, though single readings can be large or run the other way. The list shows a part of the results.
Assay: Primary qHTS for Identification of Small Molecule Activators of Huntingtin-Antisense Promoter Activity; note: nearly all actives have a fitted effect of over 55% in size
Conditions: HEK293 HTT-AS promoter firefly luciferase reporter, 24 h; series mostly up to 57.5 µM; activity change, positive = activation: at the top concentration
How it was run: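 Firefly luciferase readout (Dual-Glo, 10 min RT) after 24 h, 37 °C compound exposure (final up to 57.5 uM) of HEK293 reporter cells cultured 24 h beforehand; PTC124 at 50 uM final as control inhibitor; activity scaled vehicle 0%, zero RLU -100%.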

Activity change, positive = activation, inactive:
CC(C)Oc1ccc(CNC(=O)C2CCN(C(=O)c3sccc3-n3cccc3)CC2)cc1 -23.8%
Cc1ccc(-c2noc(CNC(=O)c3ccc(C(C)(C)C)cc3)n2)cc1 -8.14%
COc1ccccc1CNC(=O)CN1C(=O)CSc2ccc(S(=O)(=O)N3CCCC3)cc21 -8.78%
Cc1ccc(C(=O)Nc2ccc(CN3CCN(C)CC3)c(C(F)(F)F)c2)cc1C#Cc1cnc2cccnn12 -22.4%
CC(C)OCCCN(Cc1ccco1)C(=O)c1cc2c(s1)-c1ccccc1OC2 -28.8%
CCN(CC)C(=O)Cn1cc(SCC(=O)Nc2cccc(C)c2)c2ccccc21 -23%
COCc1cc(C)n(CC(=O)Nc2ccc(NC(C)=O)cc2)c(=O)c1C#N -17.3%
COc1ccccc1-c1noc(-c2ccc(N3CCN(c4ccccc4)CC3)c([N+](=O)[O-])c2)n1 -14.2%
COc1ccc(N2CCN(c3cc(C)nc4nc(-c5ccc(C)cc5)nn34)CC2)cc1 -4.48%
CC1=C(C#N)C(NC(=O)c2cccc(Cl)c2)(C(F)(F)F)C(=O)N1 (configuration not stated) -17.9%
Cc1ccc(Cl)cc1NC(=O)N1CCN(C)c2ncccc21 -15.8%
Cc1cccc(C(=O)N2CCc3cc(CNC(=O)CCc4ccccc4)ccc32)c1 -22.2%
CCOc1ccc2cc(-c3nnc(Nc4ccc(C)cc4)s3)c(=O)oc2c1 1.06%
Cc1ccccc1OCc1ccc(-c2nc(C#N)c(N3CCC(C(N)=O)CC3)o2)o1 -21.7%
CC(=O)Nc1ccc(S(=O)(=O)NCCS(=O)(=O)N2CCN(c3ccccc3F)CC2)cc1 -28.9%
COc1ccc(NC(=O)c2ccc(NC(=O)CCS(=O)(=O)c3cccs3)cc2)cc1 0.761%
COc1cccc(Nc2nc3ccc(C(=O)c4ccccc4)cc3n3c(C)nnc23)c1 -3.12%
O=C(Nc1ccc(Cl)c(-c2nc3cc(Cl)ccc3o2)c1)c1cc2ccccc2o1 18%
Cc1ccccc1NS(=O)(=O)c1nnc(NC(=O)c2ccco2)s1 -15.2%
CCOC(=O)c1c(S(=O)(=O)NCC(=O)N(C)c2ccc(C)cc2)c(C)n(C)c1C -20.6%
COc1ccc(CCC(=O)NCCc2csc(-c3cccc(C)c3)n2)cc1 -10.8%
Cc1ccc(C)c(CN2C(=O)c3ccccc3S(=O)c3ccc(C(=O)NCCC4=CCCCC4)cc32)c1 (configuration not stated) -20.7%
Cc1ccc(C(=O)Nc2ccc3[nH]c(=O)c(=O)[nH]c3c2)cc1 -5.29%
CC(C)Oc1ccc(CNC(=O)Cn2c(-c3cccs3)cc3ccccc32)cc1 -29%
COc1cccc(C(=O)Nc2ccc(S(=O)(=O)N(Cc3ccccc3)c3ccccc3)cc2)c1 14% [at 11.5 µM, percent change from vehicle, -100% = no light]
CCS(=O)(=O)N1CCc2cc(C(=O)NCCc3ccc(OC)c(OC)c3)ccc21 -22.1%
CC(=O)c1ccc(N2CCN(C(=O)C3CCN(S(=O)(=O)c4c(C)noc4/C=C/c4ccccc4F)CC3)CC2)cc1 -14.5%
Cc1cc(C)c(S(=O)(=O)NCCc2csc3nc(-c4ccc(Cl)cc4)nn23)c(C)c1 -37.5%
Cc1ccc(NC(=O)c2sc3ncnc(N(C)C4CCCCC4)c3c2C)cc1 -12.2%
Cc1ccc(C)c(N2CCN(c3nc4ccccc4c(=O)n3-c3ccccc3)CC2)c1 -37.3%
O=c1c2c3c(sc2n(Cc2ccc(F)cc2Cl)c(=O)n1-c1ccc(Cl)cc1)CCC3 7.99%
COc1cccc(CN(C(=O)c2cccc(C)c2)C2CCS(=O)(=O)C2)c1 (configuration not stated) -12%
CC(=O)c1ccc(NC(=O)Cn2nc(C(F)(F)F)c3c2CCCC3)cc1 -19.1%
COc1ccc(OC)c(-c2noc(N3CCN(c4cccc(C)c4C)CC3)n2)c1 -32.7%
CCSc1nn(CC(=O)Nc2cccc(Cl)c2)c(N)c1S(=O)(=O)c1ccc(OC)cc1 -28.7%
CC(N[C@H]1CCCC[C@H]1NC(=O)c1ccc(Cl)cc1)c1cccc2ccccc12 (some centres not stated) -26.2%
CCc1ccc(NC(=O)Cn2c(=O)n(-c3cc(C)cc(C)c3)c(=O)c3oc4ccccc4c32)cc1 -21.3%
COC(=O)c1ccccc1NC(=O)C1=C(C)C(=O)OC12CCC(C)CC2 (configuration not stated) -18%
Cc1ccc(CSc2oc(-c3cccs3)nc2S(=O)(=O)c2ccc(C)cc2)cc1 -2.61%
COC(=O)CC1Oc2ccc(C)cc2-n2cc(-c3ccc(C)cc3)nc21 (configuration not stated) -24.6%
Cc1ccc(-n2nc3c(=O)n(CCCC(=O)NC(C)c4ccccc4)nc(C)c3c2C)cc1 (configuration not stated) 3.57%
CC(C)CC(=O)Nc1nnc(S(=O)(=O)N2CCc3ccccc32)s1 -13.7%
Cc1ccc2oc(C(=O)Nc3sc4c(c3C(=O)NCc3cccnc3)CCCC4)cc(=O)c2c1 6.67% [at 11.5 µM, percent change from vehicle, -100% = no light]
CCCN(CCC)C(=O)Cn1c(=O)n(Cc2ccc(C(=O)NCCc3ccc(Cl)cc3)cc2)c(=O)c2ccccc21 -19.7%
COc1ccccc1Cn1cc(C(=O)c2ccc(C)cc2)c(=O)c2cc(F)cc(F)c21 -6.7%
CCc1cccc(NC(=O)Cn2nc3c4cc(F)ccc4n(Cc4cccc(C)c4)cc-3c2=O)c1 -13.7%
CCc1ccccc1N1C(=O)N(CC(=O)c2ccc(OC)cc2)c2ccccc2S1(=O)=O -26.4%
CC(C)Oc1ccc(C(=O)Nc2nonc2-c2ccc(OC(C)C)cc2)cc1 -3.06%
COC(=O)CCN(C(=O)C1CCN(S(=O)(=O)c2c(C)noc2/C=C/c2ccccc2F)CC1)c1ccccc1 -1.89%
CCCNC(=O)c1cnc2c(-c3ccc(OCC)c(OCC)c3)c(C)nn2c1-c1ccccc1 -27.6%
COc1cc(NC(=O)CC(c2cccs2)N2Cc3ccccc3C2=O)cc(OC)c1OC (configuration not stated) -13.4%
CCN(CCCNC(=O)Cn1ncc2c([nH]c3ccc(C)cc32)c1=O)Cc1ccccc1 -9.61%
CC(C)n1c(=N)c(C(=O)NC2CCCCC2)cc2c(=O)n3ccccc3nc21 0%
Clc1cccc(CSc2nnc(C3CCNCC3)o2)c1 2.18%
Cc1cccc(CNC(=O)c2cnc3sc(N4CCCCCC4)nn3c2=O)c1 -10.9%
COc1ccc(-c2nsc(NC(=O)c3oc4cc(C)c(C)cc4c3C)n2)cc1 -8.82%
Cc1ccc(N(Cc2cccs2)C(=O)COc2cccc(C)c2)cc1 -27.9%
